Results as given in PubChem BioAssay AID1508623 (National Center for Advancing Translational Sciences (NCATS), 2021).
About 450 (0.94%) of roughly 48,000 compounds were called active. About 19% were inconclusive and are not listed. Calls come from the whole dose curve; as a rule, active = well fitted inhibition curve with a large enough effect; inconclusive = small, poorly fitted or top-dose-only effect; inactive = no such curve, though single readings can be large or run the other way. The list shows a part of the results.

Test: Primary qHTS for Identification of Small Molecule Inhibitors of Huntingtin Promoter Activity; note: nearly all actives have a fitted effect of over 50% in size
Conditions: HEK293 HTT promoter firefly luciferase reporter (activity 0% = vehicle and -100% = no light), 24 h; series mostly up to 57.5 µM; activity change, negative = inhibition: at the top concentration
Summary of the method: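 Firefly luciferase signal from promoter-reporter HEK293 cells was scaled between vehicle (0%) and zero RLU (-100%). Compounds were tested at final concentrations of up to 57.5 uM over 24 h at 37 degrees C. PTC124 at 50 uM final served as control inhibitor.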

Activity change, negative = inhibition, inactive:
Cc1cc(C)c(NC(=O)C(C)n2c(=O)cc(-c3ccccc3)c3c(C)nn(C)c32)c(C)c1 (stereo not drawn) -0.304%, CCCNC(=O)CSc1c(CCC)cnc2c1c(=O)n(C)c(=O)n2C -5.71%, CC(C)COCC(CN(Cc1ccccc1)c1ccccc1)N1CCCC1 (stereo not drawn) -33.5%, O=C(CN1C(=O)C2(SCC(=O)N2c2cccc(F)c2)c2ccccc21)NCCc1ccccc1 (stereo not drawn) -9.9%, O=C(CCOCCOCCOCCOCCC(=O)Nc1c(I)cc(I)c(C(=O)O)c1I)Nc1c(I)cc(I)c(C(=O)O)c1I 2.83%, O=C(NCCc1csc(-c2cccnc2)n1)c1ccccc1 12.3%, CCOC(=O)c1cnc(N2CCN(c3cccc(C)c3C)CC2)c2ccccc12 -3.89%, Cc1ccccc1C(=O)OCc1cc(=O)n2nc(C3CCCCC3)sc2n1 -9.24%, CCOC(=O)c1cc(-c2ccc(OC)c(S(=O)(=O)NCc3ccccc3Cl)c2)on1 -9.27%, CC1CCCCN1CCCNC(=O)CN1C(=O)CSc2ccc(S(=O)(=O)N3CCOCC3)cc21 (stereo not drawn) -12.3%, COc1ccc(OC)c(NC(=O)Cn2ccn(-c3ccc(OC)c(OC)c3)c(=O)c2=O)c1 -18.4%, CCc1ccc(NC(=O)Nc2ccccc2OCc2cc(=O)n3ccccc3n2)cc1 52.5%, Cc1ccc(Nc2c(-c3ccc(C)s3)nc3ccccn23)cc1 38.1%, COC(=O)c1cccc(NC2=NS(=O)(=O)c3ccccc32)c1 -13.1%, Cc1cc(Cl)ccc1NC(=O)Cc1ccc(NC(=O)N2CCCCc3ccccc32)cc1 -7.97%, CCCCCC1Nc2cc(C(F)(F)F)c(S(N)(=O)=O)cc2S(=O)(=O)N1 (stereo not drawn) -3.95%, COc1ccc(C)cc1NC(=O)C1CCN(S(=O)(=O)c2cc(Br)cc3c2N(C(C)=O)CC3)CC1 -6.76%, CCOc1ccccc1NC(=O)N(Cc1ccc(C)o1)C1CCN(C(C)=O)CC1 -18.6%, Cc1ccc(-c2cc3ncc4c(n3n2)-c2cc(F)ccc2OC4)cc1 1.26%, CCOC(=O)CNC(=O)N1CCCN(S(=O)(=O)c2ccc3c(ccn3CC)c2)CC1 -22.5%, O=C(CSc1nnc(-c2ccc(Cl)cc2)o1)c1ccc([N+](=O)[O-])cc1 -19.8%, CCc1ccc(C(=O)c2cn(CC(=O)Nc3cccc(OC)c3)c3cc4c(cc3c2=O)OCO4)cc1 -20.2%, CCn1c(SCc2c(F)cccc2Cl)nc(=O)c2c(C(=O)OC)cc(C3CC3)nc21 2.37%, O=C(c1ccccc1Br)N(Cc1ccco1)Cc1ccco1 -27.8%, O=c1c(=O)n(-c2ccc(F)c(F)c2)ccn1Cc1ccc(F)cc1Cl -21.7%, CCOC(=O)C1=C(CS(=O)(=O)c2ccc(F)c(C)c2)NC(=O)NC1c1ccccc1OC (stereo not drawn) -15.1%, CCCc1nnc(NC(=O)c2nc(SCC)ncc2Cl)s1 -2.48%, CCc1nn(CC(=O)N2CCCCC2)c(=O)c2cc3occc3n12 -8.33%, CN(C)/N=N/c1nc[nH]c1C(N)=O 1.98%, CCOc1ccc(NC(=O)N2CCN(c3nnc(C)c4c(C)n(-c5ccccc5)nc34)CC2)cc1 -2.19%, CCCCn1c(=O)n(-c2cc(OC)ccc2OC)c(=O)c2c3c(sc21)CN(C(C)=O)CC3 12.5%, COc1ccc(-n2nc(C(=O)Nc3cc(C)ccn3)c3c4ccccc4n(C)c3c2=O)cc1 -7.7%, O=C(CC1N=C2c3ccccc3N=C(SCc3ccccc3Cl)N2C1=O)NCCc1ccccc1 (stereo not drawn) -31%, CCOc1ccc(-n2nc3ccc(NC(=O)c4ccc(OC)c(Cl)c4)cc3n2)cc1 -14.6%, Cc1ccc2c(=O)cc(C(=O)Nc3sc4c(c3C(=O)NCC3CCCO3)CCC4)oc2c1 (stereo not drawn) -13.6% [at 11.5 µM], Cc1oc(-c2ccccc2Cl)nc1CS(=O)(=O)CC(=O)NCc1ccc(F)cc1 -30%, CCC(C(=O)NCc1ccccc1OC)n1nc(C)n2c(cc3occc32)c1=O (stereo not drawn) -15.2%, COc1ccc(C(=O)Nc2ccc(N(C)Cc3ccccc3)c(C(=O)O)c2)cc1 -12%, CCOC(=O)Cn1c(=O)n(CC2CCCO2)c2nc(-c3ccccc3)nc(C(N)=O)c21 (stereo not drawn) 1.77%, Cc1cc(C)cc(NC(=O)N2CCC(CN3CCOCC3)CC2)c1 -5.17%, O=C(Nc1ccc(C(=O)O)c(O)c1)c1ccccc1 4.12%, CC(C)NC(=O)N1[C@H](c2cccs2)[C@@H](C)C(=O)[C@@H](C)[C@@H]1c1cccs1 -17.2%, O=C(CN1CCCN(Cc2ccccc2F)S1(=O)=O)Nc1ccc(F)c(Cl)c1 -4.38%, Cc1ccc(CNCc2ccccc2Cl)s1 23.2%, COc1ccc(-c2nnc(SCC(=O)NCCC(C)C)nc2-c2ccc(OC)c(OC)c2)cc1OC -22.2%, COCc1cc(C)nc2c1C(=O)NC(c1ccc(F)cc1)N2Cc1ccccc1 (stereo not drawn) -17.8%, COC(=O)c1cc2oc(C)cc2n1CC(=O)Nc1ccc(C(C)C)cc1 -28.1%, CCCCNC(=O)c1ccc2c(=O)n(Cc3ccc(OC)cc3)c(=O)[nH]c2c1 0.875%, CC1=C(C(=O)NCc2cccc(F)c2)C2(CCCCC2)OC1=O -20.5%, CC1Cc2ccccc2N1C(=O)CSc1nc2ccc(NC(=O)COc3ccccc3)cc2s1 (stereo not drawn) -32.1%, CCCCOC(=O)c1ccc(N)cc1 9.31%, CCOC(=O)C(C)Sc1ccc2nnc(CCNS(=O)(=O)c3ccc(C)cc3)n2n1 (stereo not drawn) 7.41%, N#Cc1c(C(F)(F)F)cc(-c2cccs2)nc1SCc1ccc(F)cc1 -2.74%, Cc1ccccc1CSc1cn(CC(=O)N2CCCCC2)c2ccccc12 -2.82%, CCOC(=O)c1c(C)oc2nc(C)nc(NCC3CCN(Cc4ccc(C)cc4)CC3)c12 -0.43%, Cc1nn(C)cc1CN(C)C(=O)c1cc(-c2ccccc2)nc2ccc(Br)cc12 -8.75%, Cc1ccc(NC(=O)CCS(=O)(=O)c2ccc(Br)s2)c(Br)c1 -17.2%, CCCc1ccc(OCC(=O)Nc2sc(C(=O)OCC)c(C)c2C(=O)OCC)cc1 -0.699%, CCc1ccccc1NS(=O)(=O)c1ccc2[nH]cc(C(=O)N(CC)Cc3ccccc3)c(=O)c2c1 4.51%, CSc1ncc(C(=O)NCc2ccccc2F)c(-c2ccccc2)n1 1.5%, CCc1ccc(C2CC(=O)c3c([nH]c(C(=O)OC4CCCC4)c3C)C2)cc1 (stereo not drawn) 5.39%, COc1ccc(C2NC(=O)N(C)C3=C2C(=O)N(c2ccc(C(=O)O)cc2)C3)cc1 (stereo not drawn) -8.78%, COc1ccc(OC)c(C2CC(=O)Nc3c2c(=O)[nH]c2ncnn32)c1 (stereo not drawn) -2.95%
